# Test results reported in publication PMC4336329 (PLoS ONE, 2015).
# Out of some 310,000 compounds screened, about 14,000 (4.5%) showed an effect of 50% or more. The effect is printed as a negative number. This is one part of the list.
# Target: human ether-à-go-go-related gene (hERG) potassium channel (human, UniProt Q12809)
# Assay: primary screen, population patch clamp on CHO cells stably expressing hERG
# 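Also: peak tail current of the secondary pulse compared with the same well before compound.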
# Sequence of human ether-à-go-go-related gene (hERG) potassium channel (Q12809 whole entry, looked up): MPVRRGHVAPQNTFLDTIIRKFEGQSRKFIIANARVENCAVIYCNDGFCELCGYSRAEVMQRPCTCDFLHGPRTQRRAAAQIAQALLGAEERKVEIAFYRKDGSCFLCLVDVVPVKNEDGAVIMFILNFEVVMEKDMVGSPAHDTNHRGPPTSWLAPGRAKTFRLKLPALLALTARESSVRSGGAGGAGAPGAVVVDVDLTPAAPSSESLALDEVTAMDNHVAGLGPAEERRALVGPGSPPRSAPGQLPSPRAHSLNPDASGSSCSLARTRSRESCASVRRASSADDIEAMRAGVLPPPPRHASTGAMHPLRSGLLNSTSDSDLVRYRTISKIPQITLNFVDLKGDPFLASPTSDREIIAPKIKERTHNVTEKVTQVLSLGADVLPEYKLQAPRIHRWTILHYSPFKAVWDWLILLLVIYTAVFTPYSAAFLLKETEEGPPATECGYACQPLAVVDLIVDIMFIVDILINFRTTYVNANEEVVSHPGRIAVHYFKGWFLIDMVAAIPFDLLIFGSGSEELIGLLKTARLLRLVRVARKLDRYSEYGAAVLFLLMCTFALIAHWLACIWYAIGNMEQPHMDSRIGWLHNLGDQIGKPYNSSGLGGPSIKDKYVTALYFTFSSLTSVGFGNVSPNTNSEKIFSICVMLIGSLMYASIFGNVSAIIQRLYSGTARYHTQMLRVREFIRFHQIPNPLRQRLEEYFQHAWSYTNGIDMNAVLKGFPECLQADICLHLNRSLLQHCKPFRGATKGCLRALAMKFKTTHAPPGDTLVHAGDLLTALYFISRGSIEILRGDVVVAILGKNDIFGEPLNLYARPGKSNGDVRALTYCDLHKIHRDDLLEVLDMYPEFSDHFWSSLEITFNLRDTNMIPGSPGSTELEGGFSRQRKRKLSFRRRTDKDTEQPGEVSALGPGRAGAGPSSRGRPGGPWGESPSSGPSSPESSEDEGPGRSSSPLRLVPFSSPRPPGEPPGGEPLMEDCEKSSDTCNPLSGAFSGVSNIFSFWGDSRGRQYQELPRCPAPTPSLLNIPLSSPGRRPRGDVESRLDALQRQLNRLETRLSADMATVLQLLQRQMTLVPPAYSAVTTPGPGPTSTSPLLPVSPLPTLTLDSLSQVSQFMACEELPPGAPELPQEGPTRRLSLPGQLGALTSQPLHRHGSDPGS
row,Structure (SMILES),"hERG current change (%, negative = inhibition) at 10uM [%]"
1,Cc1ccc(S(=O)(=O)CCSc2cccc(C(=O)O)c2)cc1,12.5
2,O=C(c1cccc(S(=O)(=O)N2CCOCC2)c1)N1CCN(c2ccccc2)CC1,-15.7
3,CCSC(=O)N(CC)CC(=O)Nc1c(CC)cccc1CC,6.48
4,CC1(C)C2CCC1(CS(=O)(=O)N1CCN(c3ccccc3F)CC1)C(=O)C2 (centres unmarked),11.1
5,COc1ccc(CNC(=O)C(=O)NCC2CCCN2S(=O)(=O)c2ccccc2)cc1 (centres unmarked),-49.5
6,ClC(/C=N/n1cnnc1)=C/c1ccccc1,2.33
7,CN(C)CCNC(=O)C(=O)NCC1CCCN1S(=O)(=O)c1cccs1 (centres unmarked),16.3
8,CC(NC(=S)NC1CCCCC1)C(c1cccs1)N1CCOCC1 (centres unmarked),-0.732
9,COCCCn1c(C(=O)N2CCOCC2)cc2c(=O)n3ccccc3nc21,2.75
10,Cc1[nH]c2ccccc2c1CCNC(=O)c1ccc2c(c1[N+](=O)[O-])C(=O)c1ccccc1C2=O,14.2
11,CCC(C)[C@H](N)c1cn([C@@H](CCCCN)C(=O)N2CCNCC2)nn1.Cl (some centres unmarked),18.8
12,CCOc1ccc(S(=O)(=O)Nc2ccc(S(=O)(=O)Nc3cc(OC)ccc3OC)cc2)cc1,-5.67
13,CCOc1cc(-c2noc(CCC(=O)N3CCOCC3)n2)ccc1OC,9.19
14,O=C(OCC(=O)c1cccs1)c1ccc([N+](=O)[O-])o1,9.41
15,O=C(Nc1ccccc1C(=O)N1CCCCCC1)c1cccc([N+](=O)[O-])c1,-12.2
16,Cc1cc(NC(=O)c2cc(C)on2)n(-c2ccccc2)n1,2.46
17,COc1cccc(-c2nnc(Nc3nc4c(F)cccc4s3)o2)c1,10.4
18,Cc1c(Br)c([N+](=O)[O-])nn1CCCC(=O)Nc1sc2c(c1C#N)CCC2,-40.4
19,O=C(O)c1ccc(C=C(c2nc3ccccc3s2)c2nc3ccccc3s2)cc1,20
20,O=c1c2ccccc2nc(Cc2ccccc2)n1-c1ccccc1O,2.31
21,Cc1nc(-c2ccc(Cl)cc2)sc1C1(C)CC(c2cccnc2)=NO1 (centres unmarked),-23.4
22,COc1ccc(N2Cc3ccccc3/C2=N\C(=O)Nc2ccccc2)cc1,-9.25

row,Structure (SMILES),"hERG current change (%, negative = inhibition) at 10uM [%]"
1,Cc1ccc(C(=O)NCc2ccco2)cc1S(=O)(=O)N1CCCC1,-31.1
2,O=C1c2ccccc2C(=O)N1CCc1csc(-c2cccc(F)c2)n1,-22.5
3,Cc1ccc(Nc2nc3ccccc3c(=O)[nH]2)cc1C,25.2
4,CCOC(=O)C1(Cc2cccc(OC)c2)CCCN(C(=O)c2ccccc2C)C1 (centres unmarked),-34.3
5,CCN(CC)C(=O)CC(c1ccc(F)cc1)c1ccco1 (centres unmarked),10.5
6,CC1CCC2(CC1)NC(=O)N(NC(=O)CCl)C2=O (centres unmarked),9.09
7,COc1ccc2[nH]c3c(c2c1)CCNC3C.Cl (centres unmarked),14.7
8,COc1cc(CN2CCN(C(=O)c3ccccc3F)CC2)cc(OC)c1OC.O=C(O)C(=O)O,6.56
9,CCOc1ccccc1NC(=O)C(C)N1C(=O)c2ccccc2S1(=O)=O (centres unmarked),-39.4
10,CCOC(=O)Cn1c(-c2ccccc2)ccc(C#N)c1=O,8.28
11,Fc1cccc(CNc2ncnc3cc(Cl)ccc23)c1F,2.02
12,Cc1nc2n(n1)CC(O)CS2 (centres unmarked),7.2
13,COc1ccc(C)cc1S(=O)(=O)N(C)CC(=O)NCc1ccccn1,13.1
14,CCCNC(=O)Nc1ccccc1SC,8.84
15,O=C(CCCN=C1NS(=O)(=O)c2ccccc21)OCC(=O)c1ccc(Br)cc1,11.8
16,O=c1cc(O)c2ccc(O)cc2o1,20
17,Cc1cc(C)c(S(=O)(=O)NCCCN2CCOCC2)cc1Br,-13.5
18,O=C(NN=C1CCCCC1)Nc1ccccc1Cl,3.82
19,COC(=O)c1c(NC(=O)c2ccccc2)sc(Cc2ccccc2)c1C,9.04
20,Cc1nn(-c2ccccc2)c(C)c1/C=C/C(=O)OCC(=O)NC1CCS(=O)(=O)C1 (centres unmarked),16.7
21,O=S(=O)(Cc1ccc(Cl)cc1)N1CCN(Cc2ccccc2)CC1,-5.96
22,Cc1onc(-c2ccccc2Cl)c1C(=O)N1C=CC(C(F)(F)F)=NCC1,-3.61
